# Values joined by “and” are separate entries in the source; they are usually repeats but may differ in a detail not shown here. Equal entries are not always repeated. In all, about 270,000 compounds went through this assay and about 5,800 (2.1%) were called active. The shares of active, inactive and inconclusive entries below differ from those in the screen. The call rests on the fitted dose curve; in most records, active means well fitted inhibition curve with a large enough effect; inconclusive means small, poorly fitted or top-dose-only effect; inactive means flat fitted curve, though single readings scatter. Where the call is inconclusive, the potency comes from a doubtful curve fit.
# Biological target: Microtubule-associated protein tau (Homo sapiens) (UniProt P10636)
# Sequence of UniProt P10636 (P10636 whole entry, looked up): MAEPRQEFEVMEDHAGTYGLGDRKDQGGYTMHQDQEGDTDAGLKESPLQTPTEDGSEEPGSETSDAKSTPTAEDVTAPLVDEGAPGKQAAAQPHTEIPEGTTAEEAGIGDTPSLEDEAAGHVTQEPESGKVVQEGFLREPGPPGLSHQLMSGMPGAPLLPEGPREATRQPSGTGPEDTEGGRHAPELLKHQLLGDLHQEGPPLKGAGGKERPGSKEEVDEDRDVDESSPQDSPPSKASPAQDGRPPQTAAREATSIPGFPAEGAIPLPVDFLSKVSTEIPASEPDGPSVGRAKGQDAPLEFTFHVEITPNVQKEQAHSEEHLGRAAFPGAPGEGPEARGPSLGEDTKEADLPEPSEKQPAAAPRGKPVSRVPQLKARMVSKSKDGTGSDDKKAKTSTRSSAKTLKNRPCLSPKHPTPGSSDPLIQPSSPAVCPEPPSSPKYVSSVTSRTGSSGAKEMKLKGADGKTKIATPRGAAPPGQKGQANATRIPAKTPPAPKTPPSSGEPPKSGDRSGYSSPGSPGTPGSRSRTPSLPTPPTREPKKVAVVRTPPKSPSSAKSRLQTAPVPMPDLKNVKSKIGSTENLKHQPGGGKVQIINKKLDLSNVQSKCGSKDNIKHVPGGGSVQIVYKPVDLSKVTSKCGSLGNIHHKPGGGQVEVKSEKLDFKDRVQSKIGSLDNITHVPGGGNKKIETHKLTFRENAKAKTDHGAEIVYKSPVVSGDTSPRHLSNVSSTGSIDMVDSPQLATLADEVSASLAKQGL
# Assay: qHTS for Inhibitors of Tau Fibril Formation, Thioflavin T Binding; further: nearly all actives have a fitted effect of over 55% in size
# Details: recombinant tau K18 P301L (four-repeat tau fragment), heparin-induced fibrillization, ThT fluorescence; series mostly up to 57.4 µM
# Procedure, shortened: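 Heparin-induced fibrillization of the P301L-mutant K18 repeat-domain fragment of human tau was followed by ThT binding in quantitative high-throughput format.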
# Potency means the concentration at half of the fitted maximal effect; tags describe the fitted curve by direction and shape.
row,SMILES,Potency
1,O=C(CN1C(=O)S/C(=C\C=C\c2ccccc2)C1=O)Nc1ccccc1C(=O)O,"inconclusive: 35.5 µM [inhibitor, single point]"
2,Cc1onc(-c2c(Cl)cccc2Cl)c1C(=O)Nc1ccc2c(C(F)(F)F)cc(=O)oc2c1,inactive
3,COc1ccc([N+](=O)[O-])cc1N=Cc1c(O)n(CCc2ccccc2)c(=O)n(C(C)C)c1=O,"inconclusive: 3.98 µM [inhibitor, partial curve, poor fit]"
4,CCCCn1c(O)c(C=NCCN2CCCCC2)c(=O)[nH]c1=O,inactive
5,C/C=C/C/C=C/CCC(=O)[C@H]1O[C@H]1C(N)=O,"inconclusive: 31.6 µM [inhibitor, partial curve]"
6,O=C(CN1C(=O)CN=C(c2ccccc2Cl)c2cc(Cl)ccc21)NCc1ccco1,"inconclusive: 35.5 µM [inhibitor, partial curve]"
7,CCN(CCNc1ccc([N+](=O)[O-])c2cccnc12)S(=O)(=O)c1ccc(Cl)cc1,"inconclusive: 3.55 µM [inhibitor, partial curve]"
8,O=P(Oc1ccccc1)(Oc1ccccc1)N1CCN(c2ccc(F)cc2)CC1,"inconclusive: 44.7 µM [inhibitor, single point]"
9,Cc1cc(C=C2C(=O)N(C)C(=S)N(C)C2=O)c(C)n1-c1ccncc1,"inconclusive: 17.8 µM [inhibitor, partial curve]"
10,COc1ccc2[nH]c(C)c(CCNCc3cc(OC)c(OC)c(OC)c3)c2c1,"inconclusive: 10 µM [inhibitor, partial curve]"
11,O=C1NC(=O)C(=Cc2ccc(SC3CCCCC3)o2)C(=O)N1,"inconclusive: 2.51 µM [inhibitor, full curve]"
12,Cc1ccccc1C(=O)NNC(=S)NC(=O)COc1ccccc1,"inconclusive: 39.8 µM [inhibitor, partial curve]"
13,COc1ccc(C[C@@H]2c3cc(O)c(OC)cc3CCN2C)cc1O,inactive
14,CCCCOc1ccc(CN2C(=O)C(=O)c3cc(C)ccc32)cc1OC,"inconclusive: 12.6 µM [inhibitor, partial curve]"
15,CCCNC(=O)c1c(N)n(CC2CCCO2)c2nc3ccccc3nc12 (stereo unspecified),"inconclusive: 28.2 µM [inhibitor, single point]"
16,O=C(N/N=C1/CN2CCC1CC2)c1cc2ccccc2cc1O,"inconclusive: 14.1 µM [inhibitor, partial curve]"
17,CCCCC/C=C\C/C=C\C/C=C\C/C=C\CCCC(=O)NCc1ccoc1,active: 22.4 µM
18,CCCCOc1ccc(C(=O)NCCc2csc(-c3ccc(OC)cc3)n2)cc1,"inconclusive: 8.91 µM [inhibitor, full curve, poor fit]"
19,CCc1c(C(=O)OC)ncc2[nH]c3cc(OC)c(OC)cc3c12,"inconclusive: 2.51 µM [inhibitor, full curve] and inconclusive: 2.82 µM [inhibitor, full curve]"
20,C=CCc1c(C)nc(C)nc1N/N=C/c1ccc(N(C)C)cc1,"inconclusive: 14.1 µM [inhibitor, partial curve]"
21,CN1CCN(c2ccc(C=O)cc2)CC1,inactive

row,SMILES,Potency
1,O=C1NC(=O)C(=Cc2cc3c(cc2[N+](=O)[O-])OCO3)C(=O)N1,active: 12.6 µM
2,CN1CCN(c2ccc(N)c(N3CCN(C)CC3)c2)CC1,active: 28.2 µM
3,CCOC(=O)c1sc(N=Nc2c(O)[nH]c(=O)[nH]c2=O)c(C(=O)OCC)c1C,inactive
4,O=C1NC(=O)N(c2ccc(F)cc2)C(=O)/C1=C/c1ccc(N2CCOCC2)cc1,"inconclusive: 3.55 µM [inhibitor, full curve]"
5,COc1ccc(N2C(=O)CS(=O)C(c3ccccc3)C2=O)cc1 (stereo unspecified),"inconclusive: 7.94 µM [inhibitor, full curve]"
6,O=C1NC(=O)C(=Cc2ccc(OCC(=O)N3CCOCC3)cc2)C(=O)N1,"inconclusive: 3.98 µM [inhibitor, full curve]"
7,CCC(=O)C1=C(c2cccc([N+](=O)[O-])c2)N(C(=O)CC)n2c(nnc2C2CCCCC2)S1,"inconclusive: 2.82 µM [inhibitor, full curve]"
8,CCCCCCC(=O)c1c(O)n(-c2ccccc2OC)c(=O)[nH]c1=O,"inconclusive: 31.6 µM [inhibitor, single point]"
9,COc1cccc(N2C(=O)NC(=O)C3(Cc4cc(C)ccc4N(C)C3)C2=O)c1 (stereo unspecified),"inconclusive: 31.6 µM [inhibitor, single point]"
10,FC(F)(F)c1ccc2c(c1)N(CCCN1CCN(CCCl)CC1)c1ccccc1S2,"inconclusive: 28.2 µM [inhibitor, partial curve]"
11,C#CCN1C(=O)S/C(=C\c2ccc(N3CCOCC3)cc2C)C1=O,"inconclusive: 5.62 µM [inhibitor, partial curve, poor fit]"
12,COc1c(CC=C(C)C)c2c(c3oc(=O)c(-c4ccc(O)cc4)c(O)c13)C=CC(C)(C)O2,inactive
13,O=C1CN=C(c2ccccc2)c2cc(Br)ccc2N1Cc1cc(=O)n2ccccc2n1,inactive
14,O=C(N/N=C\c1ccc(COc2ccc([N+](=O)[O-])cc2)o1)c1cccc(Cl)c1,"inconclusive: 2.82 µM [inhibitor, partial curve]"
15,COc1ccccc1-n1c(CNCC2CCCO2)nc2ccccc2c1=O (stereo unspecified),"inconclusive: 12.6 µM [inhibitor, single point]"
16,COc1ccc(/C=C/C(=O)c2c(O)n(CCC3=CCCCC3)c(=O)[nH]c2=O)cc1,"inconclusive: 20 µM [inhibitor, partial curve]"
17,COc1ccc(-n2c(O)c(C(C)=NCCN3CCNCC3)c(=O)[nH]c2=O)cc1,"inconclusive: 28.2 µM [inhibitor, partial curve]"
18,O=C(Nc1ccc2c(c1)OCO2)N1CCN(c2ccccc2)CC1,"inconclusive: 11.2 µM [inhibitor, partial curve]"
19,O=C(Nc1ccc(Br)cc1)c1cc(Br)cc(Br)c1O,active: 12.6 µM
20,CC(C)CCCC(C)C1CCC2C3=CC[C@@H]4CC(O)CC[C@@]4(C)C3CC[C@]21C (stereo partly specified),"inconclusive: 25.1 µM [inhibitor, partial curve, poor fit]"
